Assay results: the supplement of paper PMC4967469

What was measured:
[1] = compound: NC(=O)c1ncn([C@@H]2O[C@H](CO)[C@@H](O)[C@H]2O)c1N [AICAR]; experiment: Viability of human cancer cell lines after 72 h of drug (GDSC screen); settings: top dose 2000 µM; top dose inferred
Method: (§1)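 Human cancer cell lines in 384-well plates, medium with 10% serum, drug for 72 h over a 256-fold dose range (nine 2-fold or five 4-fold steps up to the top dose). Adherent lines were fixed and stained with the nucleic acid dye Syto60, suspension lines read with resazurin; signal relative to control wells, capped at 0 and 100%. One two-parameter sigmoid per drug and line, fitted in a mixed model over all curves with the slope shared within a line.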

[2] = compound: O=c1[nH]c2ccccc2n1C1CCN(Cc2ccc(-c3[nH]c4cc5ncnc5cc4nc3-c3ccccc3)cc2)CC1 [AKT inhibitor VIII]; experiment: as above; settings: top dose inferred
Method: as §1

[3] = top dose 2.56 µM, screen: GDSC drug entry 171
[4] = top dose 10.24 µM, screen: GDSC drug entry 228

RPMI-8402 (T-cell lymphoblastic leukaemia, suspension)
AUC [1]: 0.806 | pIC50 [1]: 3.08 | AUC [2, 3]: 0.961 | pIC50 [2, 3]: < 5.59 | AUC [2, 4]: 0.318 | pIC50 [2, 4]: 6.66

RPMI-8866 (chronic myeloid leukaemia, suspension)
AUC [1]: 0.706 | pIC50 [1]: 3.34 | AUC [2, 3]: 0.988 | pIC50 [2, 3]: < 5.59 | AUC [2, 4]: 0.933 | pIC50 [2, 4]: < 4.99

RT4 (bladder, adherent)
AUC [1]: 0.952 | pIC50 [1]: < 2.70 | AUC [2, 3]: 0.987 | pIC50 [2, 3]: < 5.59 | AUC [2, 4]: 0.879 | pIC50 [2, 4]: < 4.99

RVH-421 (melanoma, adherent)
AUC [1]: 0.937 | pIC50 [1]: < 2.70 | AUC [2, 3]: 0.941 | pIC50 [2, 3]: < 5.59 | AUC [2, 4]: 0.808 | pIC50 [2, 4]: 5.11

RXF393 (kidney, adherent)
AUC [1]: 0.834 | pIC50 [1]: < 2.70 | AUC [2, 3]: 0.919 | pIC50 [2, 3]: < 5.59 | AUC [2, 4]: 0.826 | pIC50 [2, 4]: 5.01

Raji (Burkitt lymphoma, suspension)
AUC [1]: 0.938 | pIC50 [1]: < 2.70 | AUC [2, 3]: 0.976 | pIC50 [2, 3]: < 5.59 | AUC [2, 4]: 0.943 | pIC50 [2, 4]: < 4.99

Ramos-2G6-4C10 (Burkitt lymphoma, suspension)
AUC [1]: 0.617 | pIC50 [1]: 3.60 | AUC [2, 3]: 0.991 | pIC50 [2, 3]: < 5.59 | AUC [2, 4]: 0.852 | pIC50 [2, 4]: 5.21

SAS (head and neck, adherent)
AUC [1]: 0.719 | pIC50 [1]: 3.25 | AUC [2, 3]: 0.969 | pIC50 [2, 3]: < 5.59 | AUC [2, 4]: 0.914 | pIC50 [2, 4]: < 4.99

SAT (head and neck, adherent)
AUC [1]: 0.735 | pIC50 [1]: 3.06 | AUC [2, 3]: 0.966 | pIC50 [2, 3]: < 5.59 | AUC [2, 4]: 0.974 | pIC50 [2, 4]: < 4.99

SBC-1 (small cell lung carcinoma, suspension)
AUC [1]: 0.844 | pIC50 [1]: 2.87 | AUC [2, 3]: 0.989 | pIC50 [2, 3]: < 5.59 | AUC [2, 4]: 0.988 | pIC50 [2, 4]: < 4.99

SBC-3 (small cell lung carcinoma, adherent)
AUC [1]: 0.985 | pIC50 [1]: < 2.70 | AUC [2, 3]: 0.983 | pIC50 [2, 3]: < 5.59 | AUC [2, 4]: 0.887 | pIC50 [2, 4]: 5.02

SBC-5 (small cell lung carcinoma, adherent)
AUC [1]: 0.834 | pIC50 [1]: 3.01 | AUC [2, 3]: 0.938 | pIC50 [2, 3]: < 5.59 | AUC [2, 4]: 0.983 | pIC50 [2, 4]: < 4.99

SCC90 (head and neck, adherent)
AUC [1]: 0.91 | pIC50 [1]: < 2.70 | AUC [2, 3]: 0.925 | pIC50 [2, 3]: < 5.59 | AUC [2, 4]: 0.58 | pIC50 [2, 4]: 5.94

SCC-4 (head and neck, adherent)
AUC [1]: 0.81 | pIC50 [1]: 2.88 | AUC [2, 3]: 0.921 | pIC50 [2, 3]: < 5.59 | AUC [2, 4]: 0.975 | pIC50 [2, 4]: < 4.99

SCC-9 (head and neck, adherent)
AUC [1]: 0.931 | pIC50 [1]: < 2.70 | AUC [2, 3]: 0.847 | pIC50 [2, 3]: < 5.59 | AUC [2, 4]: 0.726 | pIC50 [2, 4]: 5.47

SCC-25 (head and neck, adherent)
AUC [1]: 0.834 | pIC50 [1]: 2.81 | AUC [2, 3]: 0.931 | pIC50 [2, 3]: < 5.59 | AUC [2, 4]: 0.69 | pIC50 [2, 4]: 5.63

SCH (stomach, adherent)
AUC [1]: 0.891 | pIC50 [1]: < 2.70 | AUC [2, 3]: 0.988 | pIC50 [2, 3]: < 5.59 | AUC [2, 4]: 0.981 | pIC50 [2, 4]: < 4.99

SF126 (glioma, adherent)
AUC [1]: 0.948 | pIC50 [1]: < 2.70 | AUC [2, 3]: 0.914 | pIC50 [2, 3]: < 5.59 | AUC [2, 4]: 0.937 | pIC50 [2, 4]: < 4.99

SF268 (glioma, adherent)
AUC [1]: 0.956 | pIC50 [1]: < 2.70 | AUC [2, 3]: 0.934 | pIC50 [2, 3]: < 5.59 | AUC [2, 4]: 0.915 | pIC50 [2, 4]: < 4.99

SF295 (glioma, adherent)
AUC [1]: 0.982 | pIC50 [1]: < 2.70 | AUC [2, 3]: 0.918 | pIC50 [2, 3]: < 5.59 | AUC [2, 4]: 0.888 | pIC50 [2, 4]: < 4.99

SHP-77 (small cell lung carcinoma, semi-adherent)
AUC [1]: 0.953 | pIC50 [1]: < 2.70 | AUC [2, 3]: 0.957 | pIC50 [2, 3]: < 5.59 | AUC [2, 4]: 0.927 | pIC50 [2, 4]: < 4.99

SIMA (neuroblastoma, adherent)
AUC [1]: 0.936 | pIC50 [1]: < 2.70 | AUC [2, 3]: 0.984 | pIC50 [2, 3]: < 5.59 | AUC [2, 4]: 0.888 | pIC50 [2, 4]: < 4.99

SISO (cervix, adherent)
AUC [1]: 0.891 | pIC50 [1]: < 2.70 | AUC [2, 3]: 0.912 | pIC50 [2, 3]: < 5.59 | AUC [2, 4]: 0.876 | pIC50 [2, 4]: 5.03

SJRH30 (rhabdomyosarcoma, adherent)
AUC [1]: 0.986 | pIC50 [1]: < 2.70 | AUC [2, 3]: 0.986 | pIC50 [2, 3]: < 5.59 | AUC [2, 4]: 0.848 | pIC50 [2, 4]: 5.10

SJSA-1 (bone, adherent)
AUC [1]: 0.818 | pIC50 [1]: 2.88 | AUC [2, 3]: 0.949 | pIC50 [2, 3]: < 5.59 | AUC [2, 4]: 0.95 | pIC50 [2, 4]: < 4.99

SK-ES-1 (Ewing sarcoma, semi-adherent)
AUC [1]: 0.713 | pIC50 [1]: 3.28 | AUC [2, 3]: 0.967 | pIC50 [2, 3]: < 5.59 | AUC [2, 4]: 0.823 | pIC50 [2, 4]: 5.18

SK-GT-4 (oesophagus, adherent)
AUC [1]: 0.899 | pIC50 [1]: < 2.70 | AUC [2, 4]: 0.871 | pIC50 [2, 4]: < 4.99

SK-HEP-1 (liver, adherent)
AUC [1]: 0.836 | pIC50 [1]: 2.92 | AUC [2, 3]: 0.978 | pIC50 [2, 3]: < 5.59 | AUC [2, 4]: 0.989 | pIC50 [2, 4]: < 4.99

SK-MEL-2 (melanoma, adherent)
AUC [1]: 0.925 | pIC50 [1]: < 2.70 | AUC [2, 3]: 0.972 | pIC50 [2, 3]: < 5.59 | AUC [2, 4]: 0.763 | pIC50 [2, 4]: 5.42

pIC50: −log10 of the molar value. By IC50 is meant the dose at which the fit gives 50% viability; a fit beyond the top or the lowest dose is shown as a bound at that dose. AUC, from the same fit, is the share of area under the viability curve across the 256-fold dose range: 1 means no effect, lower means more sensitive. The top dose, if marked as inferred, was derived from the fitted curves, not read from the paper. For some of these results: An entry number marks a drug with two screens in the source, which often give different values.
